Measured values published in PMC12820563.
Some of the results follow. The list includes weakly bound sequences.

Biological target: T1, MBP-FoxP3dN (UniProt Q99JB6)
T1 sequence: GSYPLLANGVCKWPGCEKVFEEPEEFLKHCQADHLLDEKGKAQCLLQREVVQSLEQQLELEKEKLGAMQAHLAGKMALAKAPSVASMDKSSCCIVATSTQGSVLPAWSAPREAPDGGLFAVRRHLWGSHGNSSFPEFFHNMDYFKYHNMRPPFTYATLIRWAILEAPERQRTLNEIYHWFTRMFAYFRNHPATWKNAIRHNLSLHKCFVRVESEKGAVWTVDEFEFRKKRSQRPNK
Experiment: PD-seq (MBP pull-down with sequencing)
Conditions: 20 mM Tris-HCl pH 7.5, 100 mM NaCl, 1.5 mM MgCl2, 0.4 uM protein, 0.1 uM dsDNA library, 30 min, room temperature, amylose pull-down; high values mean tight binding; double strand, one strand shown

Sequence	binding signal (RPM ratio (pull-down/input))
GATGATTGTTCTCCCAGCTGATGAATTTAAACTCTCGAGTAAACAAATTTTCCTAATCTTTCTGTTCAAGCGCCATCTAC	0.359
GATGATTGTTCTCCCAGCTGATGAATTAGCAATTTCGAGTAAACAAATTTTCCTAATCTTTCTGTTCAAGCGCCATCTAC	1.59
GATGATTGTTCTCCCAGCTGATGAATTTGCGTCATCGAGTAAACAAATTTTCCTAATCTTTCTGTTCAAGCGCCATCTAC	2.32
GATGATTGTTCTCCCAGCTGATGAATTAAAAACGTCGAGTAAACAAATTTTCCTAATCTTTCTGTTCAAGCGCCATCTAC	0.293
GATGATTGTTCTCCCAGCTGATGAATTAATCTTCTCGAGTAAACAAATTTTCCTAATCTTTCTGTTCAAGCGCCATCTAC	0.334
GATGATTGTTCTCCCAGCTGATGAATTGTCTGGATCGAGTAAACAAATTTTCCTAATCTTTCTGTTCAAGCGCCATCTAC	0.255
GATGATTGTTCTCCCAGCTGATGAATTTCCGAAGTCGAGTAAACAAATTTTCCTAATCTTTCTGTTCAAGCGCCATCTAC	0.153
GATGATTGTTCTCCCAGCTGATGAATTTAGGTTCTCGAGTAAACAAATTTTCCTAATCTTTCTGTTCAAGCGCCATCTAC	0.889
GATGATTGTTCTCCCAGCTGATGAATTGTTAAGATCGAGTAAACAAATTTTCCTAATCTTTCTGTTCAAGCGCCATCTAC	0.532
GATGATTGTTCTCCCAGCTGATGAATTTTAGCAGTCGAGTAAACAAATTTTCCTAATCTTTCTGTTCAAGCGCCATCTAC	0.433
GATGATTGTTCTCCCAGCTGATGAATTAGCGACTTCGAGTAAACAAATTTTCCTAATCTTTCTGTTCAAGCGCCATCTAC	0.891
GATGATTGTTCTCCCAGCTGATGAATTAACCGCATCGAGTAAACAAATTTTCCTAATCTTTCTGTTCAAGCGCCATCTAC	0.862
GATGATTGTTCTCCCAGCTGATGAATTTCGCTACTCGAGTAAACAAATTTTCCTAATCTTTCTGTTCAAGCGCCATCTAC	1.8
GATGATTGTTCTCCCAGCTGATGAATTGTGGAGCTCGAGTAAACAAATTTTCCTAATCTTTCTGTTCAAGCGCCATCTAC	0.355
GATGATTGTTCTCCCAGCTGATGAATTCAGCTGGTCGAGTAAACAAATTTTCCTAATCTTTCTGTTCAAGCGCCATCTAC	0.549
GATGATTGTTCTCCCAGCTGATGAATTACAAAGTTCGAGTAAACAAATTTTCCTAATCTTTCTGTTCAAGCGCCATCTAC	0.36
GATGATTGTTCTCCCAGCTGATGAATTACAGGATTCGAGTAAACAAATTTTCCTAATCTTTCTGTTCAAGCGCCATCTAC	0.352
GATGATTGTTCTCCCAGCTGATGAATTGACAATTTCGAGTAAACAAATTTTCCTAATCTTTCTGTTCAAGCGCCATCTAC	0.434
GATGATTGTTCTCCCAGCTGATGAATTGCTTGCTTCGAGTAAACAAATTTTCCTAATCTTTCTGTTCAAGCGCCATCTAC	1.19
GATGATTGTTCTCCCAGCTGATGAATTACCTCATTCGAGTAAACAAATTTTCCTAATCTTTCTGTTCAAGCGCCATCTAC	0.4
GATGATTGTTCTCCCAGCTGATGAATTAGTTCACTCGAGTAAACAAATTTTCCTAATCTTTCTGTTCAAGCGCCATCTAC	0.55

Sequence	binding signal (RPM ratio (pull-down/input))
GATGATTGTTCTCCCAGCTGATGAATTAATGGTGTCGAGTAAACAAATTTTCCTAATCTTTCTGTTCAAGCGCCATCTAC	1.15
GATGATTGTTCTCCCAGCTGATGAATTTTAAGAGTCGAGTAAACAAATTTTCCTAATCTTTCTGTTCAAGCGCCATCTAC	0.228
GATGATTGTTCTCCCAGCTGATGAATTCTCCCTCTCGAGTAAACAAATTTTCCTAATCTTTCTGTTCAAGCGCCATCTAC	0.238
GATGATTGTTCTCCCAGCTGATGAATTTTAGACTTCGAGTAAACAAATTTTCCTAATCTTTCTGTTCAAGCGCCATCTAC	0.472
GATGATTGTTCTCCCAGCTGATGAATTTTCTCCTTCGAGTAAACAAATTTTCCTAATCTTTCTGTTCAAGCGCCATCTAC	0.184
GATGATTGTTCTCCCAGCTGATGAATTCTAATCATCGAGTAAACAAATTTTCCTAATCTTTCTGTTCAAGCGCCATCTAC	0.567
GATGATTGTTCTCCCAGCTGATGAATTTTTTGGTTCGAGTAAACAAATTTTCCTAATCTTTCTGTTCAAGCGCCATCTAC	0.282
GATGATTGTTCTCCCAGCTGATGAATTACATGAGTCGAGTAAACAAATTTTCCTAATCTTTCTGTTCAAGCGCCATCTAC	0.476
GATGATTGTTCTCCCAGCTGATGAATTAATTACCTCGAGTAAACAAATTTTCCTAATCTTTCTGTTCAAGCGCCATCTAC	0.796
GATGATTGTTCTCCCAGCTGATGAATTTCATTACTCGAGTAAACAAATTTTCCTAATCTTTCTGTTCAAGCGCCATCTAC	1.32
GATGATTGTTCTCCCAGCTGATGAATTGCTCACGTCGAGTAAACAAATTTTCCTAATCTTTCTGTTCAAGCGCCATCTAC	0.552
GATGATTGTTCTCCCAGCTGATGAATTCGTCCGATCGAGTAAACAAATTTTCCTAATCTTTCTGTTCAAGCGCCATCTAC	0.204
GATGATTGTTCTCCCAGCTGATGAATTAGCAATATCGAGTAAACAAATTTTCCTAATCTTTCTGTTCAAGCGCCATCTAC	1.34
GATGATTGTTCTCCCAGCTGATGAATTTATAGTGTCGAGTAAACAAATTTTCCTAATCTTTCTGTTCAAGCGCCATCTAC	2.71
GATGATTGTTCTCCCAGCTGATGAATTGTCCCTTTCGAGTAAACAAATTTTCCTAATCTTTCTGTTCAAGCGCCATCTAC	0.459
GATGATTGTTCTCCCAGCTGATGAATTCAAAGCCTCGAGTAAACAAATTTTCCTAATCTTTCTGTTCAAGCGCCATCTAC	0.326
GATGATTGTTCTCCCAGCTGATGAATTCCTCGGATCGAGTAAACAAATTTTCCTAATCTTTCTGTTCAAGCGCCATCTAC	0.164
GATGATTGTTCTCCCAGCTGATGAATTCTCCGCTTCGAGTAAACAAATTTTCCTAATCTTTCTGTTCAAGCGCCATCTAC	0.26
GATGATTGTTCTCCCAGCTGATGAATTCCTGACATCGAGTAAACAAATTTTCCTAATCTTTCTGTTCAAGCGCCATCTAC	0.355
GATGATTGTTCTCCCAGCTGATGAATTGCCTATTTCGAGTAAACAAATTTTCCTAATCTTTCTGTTCAAGCGCCATCTAC	0.776
GATGATTGTTCTCCCAGCTGATGAATTCACCCTATCGAGTAAACAAATTTTCCTAATCTTTCTGTTCAAGCGCCATCTAC	0.294

Sequence	binding signal (RPM ratio (pull-down/input))
GATGATTGTTCTCCCAGCTGATGAATTAGGATACTCGAGTAAACAAATTTTCCTAATCTTTCTGTTCAAGCGCCATCTAC	0.847
GATGATTGTTCTCCCAGCTGATGAATTGAATAGTTCGAGTAAACAAATTTTCCTAATCTTTCTGTTCAAGCGCCATCTAC	0.606
GATGATTGTTCTCCCAGCTGATGAATTAAAATCTTCGAGTAAACAAATTTTCCTAATCTTTCTGTTCAAGCGCCATCTAC	0.242
GATGATTGTTCTCCCAGCTGATGAATTCTTTTACTCGAGTAAACAAATTTTCCTAATCTTTCTGTTCAAGCGCCATCTAC	0.312
GATGATTGTTCTCCCAGCTGATGAATTACGGGTTTCGAGTAAACAAATTTTCCTAATCTTTCTGTTCAAGCGCCATCTAC	0.707
GATGATTGTTCTCCCAGCTGATGAATTAATGAGGTCGAGTAAACAAATTTTCCTAATCTTTCTGTTCAAGCGCCATCTAC	0.343
GATGATTGTTCTCCCAGCTGATGAATTCTGGTTCTCGAGTAAACAAATTTTCCTAATCTTTCTGTTCAAGCGCCATCTAC	0.744
GATGATTGTTCTCCCAGCTGATGAATTACCATCGTCGAGTAAACAAATTTTCCTAATCTTTCTGTTCAAGCGCCATCTAC	0.481
GATGATTGTTCTCCCAGCTGATGAATTGCGACTGTCGAGTAAACAAATTTTCCTAATCTTTCTGTTCAAGCGCCATCTAC	1.55
GATGATTGTTCTCCCAGCTGATGAATTGTAGGCTTCGAGTAAACAAATTTTCCTAATCTTTCTGTTCAAGCGCCATCTAC	0.516
GATGATTGTTCTCCCAGCTGATGAATTATCCTTGTCGAGTAAACAAATTTTCCTAATCTTTCTGTTCAAGCGCCATCTAC	0.279
GATGATTGTTCTCCCAGCTGATGAATTATAATTGTCGAGTAAACAAATTTTCCTAATCTTTCTGTTCAAGCGCCATCTAC	1.7
GATGATTGTTCTCCCAGCTGATGAATTCAAGCTGTCGAGTAAACAAATTTTCCTAATCTTTCTGTTCAAGCGCCATCTAC	0.499
GATGATTGTTCTCCCAGCTGATGAATTTTCACGGTCGAGTAAACAAATTTTCCTAATCTTTCTGTTCAAGCGCCATCTAC	0.19
GATGATTGTTCTCCCAGCTGATGAATTAGCCATATCGAGTAAACAAATTTTCCTAATCTTTCTGTTCAAGCGCCATCTAC	0.63
GATGATTGTTCTCCCAGCTGATGAATTTAGTACGTCGAGTAAACAAATTTTCCTAATCTTTCTGTTCAAGCGCCATCTAC	0.695
GATGATTGTTCTCCCAGCTGATGAATTCTACGTTTCGAGTAAACAAATTTTCCTAATCTTTCTGTTCAAGCGCCATCTAC	0.448
GATGATTGTTCTCCCAGCTGATGAATTCTAACATTCGAGTAAACAAATTTTCCTAATCTTTCTGTTCAAGCGCCATCTAC	0.754
GATGATTGTTCTCCCAGCTGATGAATTGGCGTCCTCGAGTAAACAAATTTTCCTAATCTTTCTGTTCAAGCGCCATCTAC	1.06
GATGATTGTTCTCCCAGCTGATGAATTATCCAACTCGAGTAAACAAATTTTCCTAATCTTTCTGTTCAAGCGCCATCTAC	0.246
GATGATTGTTCTCCCAGCTGATGAATTTCGCCTTTCGAGTAAACAAATTTTCCTAATCTTTCTGTTCAAGCGCCATCTAC	5.39
